Laboratory results published in the supplement of paper PMC4967469.

Compound: Cn1c(=O)n(-c2ccc(C(C)(C)C#N)cc2)c2c3cc(-c4cnc5ccccc5c4)ccc3ncc21 [NVP-BEZ235]
Assay: Viability of human cancer cell lines after 72 h of drug (GDSC screen)
Procedure: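 Human cancer cell lines in 384-well plates, medium with 10% serum, drug for 72 h over a 256-fold dose range (nine 2-fold or five 4-fold steps up to the top dose). Adherent lines were fixed and stained with the nucleic acid dye Syto60, suspension lines read with resazurin; signal relative to control wells, capped at 0 and 100%. One two-parameter sigmoid per drug and line, fitted in a mixed model over all curves with the slope shared within a line.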

Row | Cell Line | AUC | IC50 [nM]
1 | PA-1 (ovary, adherent, top dose 0.25 µM) | 0.669 | 41.1
2 | PA-TU-8902 (pancreas, adherent, top dose 0.25 µM) | 0.616 | 34.5
3 | PANC-02-03 (pancreas, adherent, top dose 0.25 µM) | 0.844 | 234
4 | PANC-03-27 (pancreas, adherent, top dose 0.25 µM) | 0.748 | 
5 | PANC-04-03 (pancreas, adherent, top dose 0.25 µM) | 0.726 | 104
6 | PANC-10-05 (pancreas, adherent, top dose 0.25 µM) | 0.737 | 91.8
7 | PC-3 [JPC-3] (lung adenocarcinoma, adherent, top dose 0.25 µM) | 0.885 | > 250
8 | PC-14 (lung adenocarcinoma, adherent, top dose 0.25 µM) | 0.687 | 48.7
9 | PCI-4B (head and neck, adherent, top dose 0.25 µM) | 0.474 | 13.3
10 | PCI-6A (head and neck, adherent, top dose 0.25 µM) | 0.7 | 56.1
11 | PCI-15A (head and neck, adherent, top dose 0.25 µM) | 0.987 | > 250
12 | PCI-30 (head and neck, adherent, top dose 0.25 µM) | 0.638 | 41
13 | PE/CA-PJ15 (head and neck, adherent, top dose 0.25 µM) | 0.612 | 32.6
14 | PEO1 (ovary, adherent, top dose 0.25 µM) | 0.797 | 124
15 | PF-382 (T-cell lymphoblastic leukaemia, suspension, top dose 0.25 µM) | 0.784 | 92.3
16 | PFSK-1 (medulloblastoma, adherent, top dose 0.25 µM) | 0.663 | 45.9
17 | PL4 (pancreas, adherent, top dose 0.25 µM) | 0.719 | 66.6
18 | PSN1 (pancreas, adherent, top dose 0.25 µM) | 0.67 | 42.6
19 | PWR-1E (prostate, adherent, top dose 0.25 µM) | 0.845 | 180
20 | QGP-1 (pancreas, adherent, top dose 0.25 µM) | 0.947 | > 250

Row | Cell Line | AUC | IC50 [nM]
21 | QIMR-WIL (acute myeloid leukaemia, suspension, top dose 0.25 µM) | 0.801 | 118
22 | RC-K8 (B-cell lymphoma, suspension, top dose 0.25 µM) | 0.8 | 103
23 | RCC10RGB (kidney, adherent, top dose 0.25 µM) | 0.773 | 
24 | RCC-AB (kidney, adherent, top dose 0.25 µM) | 0.481 | 13.7
25 | RCC-ER (kidney, adherent, top dose 0.25 µM) | 0.77 | 106
26 | RCC-FG2 (kidney, adherent, top dose 0.25 µM) | 0.567 | 25.1
27 | RCC-JF (kidney, adherent, top dose 0.25 µM) | 0.488 | 14.5
28 | RCC-JW (kidney, adherent, top dose 0.25 µM) | 0.336 | 5.4
29 | RCC-MF (kidney, adherent, top dose 0.25 µM) | 0.494 | 15
30 | RCH-ACV (B-cell leukaemia, suspension, top dose 0.25 µM) | 0.544 | 20.1
31 | RCM-1 (large intestine, adherent, top dose 0.25 µM) | 0.895 | > 250
32 | REH (B-cell leukaemia, suspension, top dose 0.25 µM) | 0.733 | 69.7
33 | RERF-LC-KJ (lung adenocarcinoma, adherent, top dose 0.25 µM) | 0.742 | 79.2
34 | RERF-LC-MS (lung adenocarcinoma, adherent, top dose 0.25 µM) | 0.828 | 159
35 | RERF-LC-Sq1 (lung squamous cell carcinoma, adherent, top dose 0.25 µM) | 0.739 | 107
36 | RF-48 (stomach, adherent, top dose 0.25 µM) | 0.778 | 115
37 | RH-1 (rhabdomyosarcoma, adherent, top dose 0.25 µM) | 0.699 | 50.9
38 | RH-18 (rhabdomyosarcoma, adherent, top dose 0.25 µM) | 0.848 | 229
39 | RH-41 (rhabdomyosarcoma, adherent, top dose 2 µM) | 0.183 | 17.5
40 | RKN (ovary, adherent, top dose 0.25 µM) | 0.558 | 22.6

Row | Cell Line | AUC | IC50 [nM]
41 | RKO (large intestine, adherent, top dose 0.25 µM) | 0.641 | 37.3
42 | RL (B-cell lymphoma, suspension, top dose 0.25 µM) | 0.574 | 24.5
43 | RO82-W-1 (thyroid, adherent, top dose 0.25 µM) | 0.675 | 55.7
44 | ROS-50 (B-cell leukaemia, suspension, top dose 0.25 µM) | 0.848 | > 250
45 | RPMI-2650 (head and neck, adherent, top dose 0.25 µM) | 0.681 | 
46 | RPMI-6666 (Hodgkin lymphoma, suspension, top dose 0.25 µM) | 0.646 | 43.2
47 | RPMI-7951 (melanoma, adherent, top dose 0.25 µM) | 0.543 | 20.4
48 | RPMI-8226 (myeloma, suspension, top dose 0.25 µM) | 0.591 | 26.8
49 | RPMI-8402 (T-cell lymphoblastic leukaemia, suspension, top dose 0.25 µM) | 0.699 | 50.9
50 | RPMI-8866 (chronic myeloid leukaemia, suspension, top dose 0.25 µM) | 0.505 | 16.2
51 | RS4-11 (leukaemia, suspension, top dose 0.25 µM) | 0.647 | 38.3
52 | RT4 (bladder, adherent, top dose 0.25 µM) | 0.964 | > 250
53 | RVH-421 (melanoma, adherent, top dose 0.25 µM) | 0.687 | 63.9
54 | RXF393 (kidney, adherent, top dose 0.25 µM) | 0.616 | 36.8
55 | Raji (Burkitt lymphoma, suspension, top dose 0.25 µM) | 0.84 | 156
56 | Ramos-2G6-4C10 (Burkitt lymphoma, suspension, top dose 0.25 µM) | 0.355 | 6.63
57 | SAS (head and neck, adherent, top dose 0.25 µM) | 0.849 | 222
58 | SAT (head and neck, adherent, top dose 0.25 µM) | 0.714 | 89.1
59 | SBC-1 (small cell lung carcinoma, suspension, top dose 0.25 µM) | 0.81 | 125

Lines with a small IC50 respond at low doses; a fit beyond the top or the lowest dose is shown as a bound at that dose. AUC, from the same fit, is the share of area under the viability curve across the 256-fold dose range: 1 means no effect, lower means more sensitive.
